Results taken from PubChem BioAssay AID1476 (National Center for Advancing Translational Sciences (NCATS), 2009).
“And” between values parts separate entries of the source, which are not always exact repeats. Equal entries are not always repeated. Hit rate of the full screen: of about 200,000 compounds, about 4,500 (2.2%) were called active. The inconclusive results got no clear call from the source; some entries with a clear call stand among them for comparison. The call rests on the fitted dose curve; in most records, active means well fitted inhibition curve with a large enough effect; inconclusive means small, poorly fitted or top-dose-only effect, or effect the other way; inactive means flat fitted curve, though single readings scatter. Potencies of inconclusive entries are doubtful fits and often do not repeat. More than one record can exist for a structure, and the calls need not agree.

Biological target: Cruzipain (Trypanosoma cruzi) (UniProt P25779)
Experiment: qHTS Assay for Promiscuous and Specific Inhibitors of Cruzain (without detergent); further: nearly all actives have a fitted effect of over 40% in size;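 on max response, negative = inhibition: plate controls were enzyme without inhibitor for no effect and buffer without enzyme for full effect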
Settings: purified cruzain, Z-FR-AMC fluorescence, no detergent
Summary of the method: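 Purified cruzain at 1.5 nM, pre-incubated 15 min with compound at room temperature in 100 mM sodium acetate pH 5.5, 5 mM DTT, 0.00005% Triton X-100. Reaction started with 2 uM Z-FR-AMC; AMC fluorescence increase over 60 s gives rate.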
Potency means the concentration at half of the fitted maximal effect; tags describe the fitted curve by direction and shape.

Sequence of UniProt P25779 (P25779 whole entry, looked up): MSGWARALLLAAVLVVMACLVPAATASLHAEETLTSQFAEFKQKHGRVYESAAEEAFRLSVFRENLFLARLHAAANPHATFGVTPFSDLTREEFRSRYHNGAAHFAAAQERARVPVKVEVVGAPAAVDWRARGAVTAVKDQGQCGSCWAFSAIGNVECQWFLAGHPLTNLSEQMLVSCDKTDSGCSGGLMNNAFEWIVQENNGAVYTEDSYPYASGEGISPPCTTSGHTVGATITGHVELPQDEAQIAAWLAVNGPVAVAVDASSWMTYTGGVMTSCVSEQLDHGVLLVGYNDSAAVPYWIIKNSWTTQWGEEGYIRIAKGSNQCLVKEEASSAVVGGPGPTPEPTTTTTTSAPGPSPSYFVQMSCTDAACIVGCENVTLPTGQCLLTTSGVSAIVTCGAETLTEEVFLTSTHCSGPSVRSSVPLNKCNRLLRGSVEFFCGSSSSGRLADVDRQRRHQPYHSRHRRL

How did the Potency turn out when `COc1ccc(C(=O)Nc2nc(-c3ccc(OC)cc3)c(-c3ccc([N+](=O)[O-])cc3)s2)cc1` was run?
The Potency was active: 7.94 µM.

Which Potency does the source give for `Cc1sc(NC(=S)NC(=O)c2cccs2)nc1-c1ccc(CC(C)C)cc1` here?
Its Potency is active: 10 µM.

Which Potency does the source give for `COc1ccc(-c2n[nH]c3c2cnc2cc(OC)c(OC)cc23)cc1` here?
The Potency was inconclusive: 39.8 µM [inhibitor, single point].

With `CCOc1ccccc1CNC(=O)C1CCN(c2nc3ccccc3nc2C(F)(F)F)CC1` as the compound, how does the max response, negative = inhibition read?
The max response, negative = inhibition was inactive: -8.06%.

With `CCc1ccc(C(=O)c2cn(CC(=O)Nc3ccc4c(c3)OCO4)c3ccc(F)cc3c2=O)cc1` as the compound, how does the Potency read?
The Potency was inconclusive: 15.8 µM [inhibitor, partial curve, poor fit].

With `Cn1c(=O)oc2cc(S(=O)(=O)NC(Cc3ccccc3)C(=O)NCc3ccccc3Cl)ccc21` (stereo not drawn) as the compound, how does the Potency read?
Its Potency is inconclusive: 25.1 µM [inhibitor, single point].

`CO[C@H]1C([C@@]2(C)O[C@@H]2CC=C(C)C)[C@]2(CC[C@H]1OC(=O)/C=C/C=C/C=C/C=C/C(=O)O)CO2` (stereo partly drawn) was tested. Which Potency did it give?
Its Potency is inconclusive: 10 µM [activator, partial curve].

With `CCN(CC)S(=O)(=O)c1ccc2c(c1)c(=O)c(C(=O)N1CCN(c3cccc(Cl)c3)CC1)cn2C` as the compound, how does the max response, negative = inhibition read?
The max response, negative = inhibition was inactive: 15.1%.

How did the Potency turn out when `Cc1cc(C)c(OCCCCn2cnc3ccccc3c2=O)c(C)c1` was run?
The Potency was inconclusive: 39.8 µM [activator, single point].

`CC1=C(c2ccc(C)c(C)c2)S(=O)(=O)N(Cc2ccc(C(=O)NC(C)c3ccccc3)cc2)C1=O` (stereo not drawn) was tested. Which max response, negative = inhibition did it give?
The max response, negative = inhibition was inactive: 4.24%.

With `COC(=O)C1(C(=O)OC)C/C=C\C/C=C\c2ccccc2C1C[N+](=O)[O-]` (stereo not drawn) as the compound, how does the max response, negative = inhibition read?
The max response, negative = inhibition was inactive: -7.01%.

Which Potency does the source give for `Cc1ccc(SCCC(=O)Nc2ccc(OCc3ccccc3)cc2)cc1` here?
The Potency was inconclusive: 25.1 µM [inhibitor, single point].

How did the Potency turn out when `CCOc1ccc(C(=O)Nc2ccc(S(=O)(=O)Nc3nc(C)cc(C)n3)cc2)cc1OC` was run?
Its Potency is inconclusive: 39.8 µM [activator, single point].

With `CS(=O)(=O)Nc1cccc(-c2ccc3ncnc(NC4CC4)c3c2)c1` as the compound, how does the max response, negative = inhibition read?
The max response, negative = inhibition was inactive: -5.31%.

`Cc1ccccc1OCC(=O)N(Cc1ccc(N(C)C)cc1)C1CCS(=O)(=O)C1` (stereo not drawn) was tested. Which max response, negative = inhibition did it give?
The max response, negative = inhibition was inactive: 6.21%.

How did the max response, negative = inhibition turn out when `O=C(Nc1ccc(F)cc1F)c1ccc2c(O)c(S(=O)(=O)c3ccc(Cl)cc3)c(=O)[nH]c2c1` was run?
The max response, negative = inhibition was inactive: 6.43%.

For `COc1cc(NC(=O)CSc2nc3nc(C)c(Cc4ccc(C)cc4)c(C)n3n2)cc(OC)c1OC`, which Potency is on record?
The Potency was inconclusive: 39.8 µM [activator, single point].

For `COc1cccc(C2C3=C(N=C4SCC(=O)N42)c2ccccc2CC3)c1OC` (stereo not drawn), which Potency is on record?
The Potency was inconclusive: 25.1 µM [inhibitor, partial curve].

`O=C1C2C3C=CC(C4CC34)C2C(=O)N1/N=C/c1ccc(-c2cccc([N+](=O)[O-])c2)o1` (stereo not drawn) was tested. Which Potency did it give?
Its Potency is active: 25.1 µM.

How did the max response, negative = inhibition turn out when `CC12CN3CC(C)(CN(C1)C3c1ccc3ccccc3c1O)C2=O` (stereo not drawn) was run?
The max response, negative = inhibition was inactive: -4.7%.

How did the Potency turn out when `O=C(NCc1ccc(F)cc1)c1c2c(nc3ccccc13)CCN(Cc1ccccc1)C2` was run?
The Potency was inconclusive: 39.8 µM [inhibitor, single point].

With `Oc1c(Cl)cc(Cl)c(Cl)c1Cc1c(O)c(Cl)cc(Cl)c1Cl` as the compound, how does the Potency read?
The Potency was active: 31.6 µM and active: 25.1 µM.

Which Potency does the source give for `CC1=C(C(=O)OCc2ccccc2)C(c2ccccc2-c2ccccc2)NC(=O)N1CCCCCC(=O)O` (stereo not drawn) here?
The Potency was inconclusive: 39.8 µM [activator, single point].

How did the Potency turn out when `CCC(CC)c1nnc(NC(=O)C2CC(=O)N(c3ccc4c(c3)OCCO4)C2)s1` (stereo not drawn) was run?
Its Potency is inconclusive: 39.8 µM [activator, single point].

How did the max response, negative = inhibition turn out when `O=c1cc(Cn2nnc(-c3ccc(Cl)cc3)n2)nc2sccn12` was run?
Its max response, negative = inhibition is inactive: 0.777%.

Which max response, negative = inhibition does the source give for `O=C(O)C(S)[C@@H](S)C(=O)O` (stereo partly drawn) here?
Its max response, negative = inhibition is inactive: -10.6%.

With `CCCCC[C@H](O)/C=C/C1=C(CCCCCCC(=O)O)C(=O)CC1` as the compound, how does the Potency read?
Its Potency is inconclusive: 39.8 µM [activator, single point].

For `CCOc1ccc(-c2nnn(CC(=O)NCc3ccc(OC)cc3)n2)cc1OCC`, which max response, negative = inhibition is on record?
Its max response, negative = inhibition is inactive: 23.6%.

For `O=C(c1cc(-c2cccs2)nc2ccccc12)N1CCN(S(=O)(=O)c2ccccc2)CC1`, which Potency is on record?
Its Potency is inconclusive: 39.8 µM [inhibitor, single point].

How did the Potency turn out when `COc1ccc(C)cc1NC(=O)Cn1c(=O)ccc2cc(S(=O)(=O)N3CCC(C)CC3)ccc21` was run?
Its Potency is inconclusive: 15.8 µM [inhibitor, single point].

How did the Potency turn out when `CCOc1ccc(CCNC(=O)c2ccc(CS(=O)Cc3cccc(Cl)c3)o2)cc1` (stereo not drawn) was run?
The Potency was inconclusive: 39.8 µM [activator, single point].

Which Potency does the source give for `CCN(CCCNC(=O)CSc1cc(=O)n(CC)c2ccccc12)c1cccc(C)c1` here?
Its Potency is inconclusive: 31.6 µM [activator, single point].

Which Potency does the source give for `Nc1c(C(=O)NC2CC2)c2nc3ccccc3nc2n1-c1ccc2c(c1)OCO2` here?
The Potency was inconclusive: 31.6 µM [activator, single point].

How did the Potency turn out when `CCCCc1nc2ccccc2c(=O)n1NC(=O)c1c(O)c2cccc3c2n(c1=O)CCC3` was run?
The Potency was inconclusive: 39.8 µM [inhibitor, single point].

For `CCCc1c(-c2ccc(O)cc2)nn(-c2ccc(O)cc2)c1-c1ccc(O)cc1`, which Potency is on record?
The Potency was inconclusive: 39.8 µM [activator, single point].

For `Cc1ccc(C)c(OCC(=O)Nc2ccc(S(=O)(=O)Nc3onc(C)c3C)cc2)c1C`, which Potency is on record?
Its Potency is inconclusive: 39.8 µM [activator, single point].

`O=C(Nc1ccccc1N1CCN(c2ccc(F)cc2)CC1)C12CC3CC(CC(C3)C1)C2` was tested. Which Potency did it give?
The Potency was active: 25.1 µM.

With `CC(=O)c1c(C)[nH]c(C(=O)OCC(=O)Nc2sc3c(c2C#N)CCCC3)c1C` as the compound, how does the max response, negative = inhibition read?
The max response, negative = inhibition was inactive: 11.6%.

For `Nc1c(-c2nc(-c3ccc4c(c3)OCO4)cs2)c2ccccn2c1C(=O)c1ccccc1`, which Potency is on record?
The Potency was active: 3.98 µM.

`CCOc1ccc(CCNC(=O)CCc2c(C)nc3cc(-c4ccccc4OC)nn3c2C)cc1` was tested. Which Potency did it give?
Its Potency is inconclusive: 31.6 µM [activator, single point].

`COC(=O)C1C(=O)C(C(=O)/C=C/c2ccco2)C(=O)CC1(C)C` (stereo not drawn) was tested. Which max response, negative = inhibition did it give?
The max response, negative = inhibition was inactive: -17.9%.

How did the Potency turn out when `CCOc1ccc(CCNC(=O)CSc2cc(=O)n(C)c3cc(Cl)ccc23)cc1OCC` was run?
The Potency was inconclusive: 39.8 µM [activator, single point].

With `COc1ccc(NC(=O)CSc2nnc(CN3CCOCC3)n2-c2ccccc2)cc1Cl` as the compound, how does the Potency read?
Its Potency is inconclusive: 39.8 µM [activator, single point].

With `CCOc1ccc(-c2nc(SCC(=O)NC3CCCC3)c(-c3ccccc3)[nH]2)cc1OC` as the compound, how does the Potency read?
Its Potency is inconclusive: 39.8 µM [activator, single point].

With `COC(=O)[C@@]1(Cc2ccccc2)[C@H]2c3cc(C(=O)N(C)C)n(CCO)c3C[C@H]2CN1C(=O)c1ccccc1` as the compound, how does the Potency read?
Its Potency is inconclusive: 31.6 µM [activator, single point].

How did the Potency turn out when `CCCC1=Nc2cc(C(=O)NCCc3ccccc3)ccc2Sc2ccc(C)cc21` was run?
The Potency was inconclusive: 31.6 µM [inhibitor, single point].

With `N#[N+]c1ccc(Nc2ccccc2)cc1` as the compound, how does the max response, negative = inhibition read?
The max response, negative = inhibition was inactive: 0.831%.

How did the Potency turn out when `Cc1ccc(C)c(C(=O)COC(=O)c2cccc(N3C(=O)c4c(C)nc5ccccc5c4C3=O)c2)c1` was run?
Its Potency is inconclusive: 3.98 µM [inhibitor, full curve].

For `CC(C)C[C@@H](CC(=O)N[C@@H](CCCN)CC(=O)N[C@@H]1CCNC[C@H]1C(=O)N[C@H](CC(=O)N[C@@H](CCC(=O)O)CC(=O)O)Cc1ccccc1)NC(=O)[C@@H]1CCCC[C@H]1N`, which max response, negative = inhibition is on record?
The max response, negative = inhibition was inactive: -3.05%.

With `CCOc1cc(N2CCOCC2)c(OCC)cc1NC(=O)c1ccc(OCc2c(C)noc2C)c(OC)c1` as the compound, how does the Potency read?
The Potency was inconclusive: 31.6 µM [activator, partial curve].

`COc1ccc(CCC(=O)NCCc2csc(-c3ccc(C(F)(F)F)cc3)n2)cc1` was tested. Which max response, negative = inhibition did it give?
The max response, negative = inhibition was inactive: 12.9%.

With `CCCOc1ccc(N2C(=O)CC(N(O)c3ccccc3)C2=O)cc1` (stereo not drawn) as the compound, how does the Potency read?
The Potency was inconclusive: 31.6 µM [inhibitor, single point].

How did the Potency turn out when `O=C(COC(=O)C1CC(=O)N(Cc2ccco2)C1)c1ccc(OC(=O)c2ccco2)cc1` (stereo not drawn) was run?
The Potency was inconclusive: 31.6 µM [activator, single point].

With `CCCS(=O)(=O)c1c(S(=O)(=O)CCC)c2c3ccccc3ccn2c1C(=O)OC` as the compound, how does the Potency read?
The Potency was inconclusive: 31.6 µM [activator, single point].

With `COCCCn1c(-c2ccsc2)nc2c1c(=O)[nH]c(=O)n2Cc1ccccc1` as the compound, how does the Potency read?
Its Potency is inconclusive: 25.1 µM [inhibitor, partial curve].

With `COC(=O)c1c(NC(=O)Nc2ccc(Cl)cc2)sc(C)c1C` as the compound, how does the Potency read?
The Potency was active: 25.1 µM.

For `COc1ccccc1CNC(=O)CCC1N=C2c3ccccc3N=C(SCc3ccc(C)cc3)N2C1=O` (stereo not drawn), which max response, negative = inhibition is on record?
Its max response, negative = inhibition is inactive: 10.9%.

How did the max response, negative = inhibition turn out when `CCc1cccc2nc3c(c([Si](C)(C)C)c12)Cn1c-3cccc1=O` was run?
The max response, negative = inhibition was inactive: 16.9%.

Which Potency does the source give for `Cc1nc2scc(C)n2c(=O)c1S(=O)(=O)N1CCN(c2cccc(C(F)(F)F)c2)CC1` here?
The Potency was inconclusive: 39.8 µM [activator, single point].

How did the Potency turn out when `COC(=O)c1c(C)[nH]c(C(=O)/C=C/c2ccccc2)c1C` was run?
Its Potency is inconclusive: 39.8 µM [inhibitor, single point].

How did the Potency turn out when `COCCN(C(=O)C(C)C)c1nnc(-c2ccc(C)cc2)s1` was run?
Its Potency is inconclusive: 31.6 µM [activator, single point].

With `O=C(C1CCCN(S(=O)(=O)c2cccc3nsnc23)C1)N1CCN(c2ccccc2Cl)CC1` (stereo not drawn) as the compound, how does the max response, negative = inhibition read?
Its max response, negative = inhibition is inactive: -7.63%.

With `COc1cc(-c2nnc(SCC3(c4ccc(Br)cc4)OCCO3)o2)cc(OC)c1OC` as the compound, how does the Potency read?
Its Potency is inconclusive: 39.8 µM [activator, single point].
